According to PubChem BioAssay AID1631 (National Center for Advancing Translational Sciences (NCATS), 2009):
Hit rate of the full screen: of about 260,000 compounds, about 890 (0.34%) were called active. Inconclusive results, whose numbers are uncertain, are shown with a selection of clear calls. Calls follow the shape of the dose curve; as a rule, active = well fitted activation curve with a large enough effect; inconclusive = small, poorly fitted or top-dose-only effect; inactive = no such curve, though single readings can be large or run the other way. No potency is given beside an inconclusive call; the fits are too rough.

molecular target: Pyruvate kinase PKM (Homo sapiens) (UniProt P14618); test: qHTS Assay for Activators of Human Muscle isoform 2 Pyruvate Kinase; details: purified PKM2, Kinase-Glo ATP luminescence; Potency: activation; activation: at 57.5 µM (top of the series), 0% is enzyme alone, no compound; also: nearly all actives have a fitted effect of over 55% in size
UniProt P14618, sequence (P14618 whole entry, looked up, canonical isoform): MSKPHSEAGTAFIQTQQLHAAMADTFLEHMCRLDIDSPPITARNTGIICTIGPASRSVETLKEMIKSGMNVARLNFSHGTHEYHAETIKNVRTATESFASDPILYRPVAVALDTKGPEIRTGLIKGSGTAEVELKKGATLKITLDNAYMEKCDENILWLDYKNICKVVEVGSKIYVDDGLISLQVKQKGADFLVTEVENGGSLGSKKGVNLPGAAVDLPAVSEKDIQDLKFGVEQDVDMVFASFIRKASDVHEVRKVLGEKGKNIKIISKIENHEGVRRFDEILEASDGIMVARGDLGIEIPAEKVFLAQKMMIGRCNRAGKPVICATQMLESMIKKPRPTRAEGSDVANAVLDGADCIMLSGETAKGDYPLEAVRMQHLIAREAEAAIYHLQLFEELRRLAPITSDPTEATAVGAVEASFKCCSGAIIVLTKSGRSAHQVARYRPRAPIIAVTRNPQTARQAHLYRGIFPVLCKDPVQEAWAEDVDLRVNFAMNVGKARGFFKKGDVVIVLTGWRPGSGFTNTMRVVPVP
How it was run: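 Purified hPK-M2 (>95% pure) converted ADP (0.1 mM final) to ATP with 0.5 mM PEP in 50 mM imidazole pH7.2, KCl, MgCl2, Tween 20, BSA; 1 h at room temperature. ATP detected by Kinase-Glo luminescence.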
% is scaled to controls: 0 for no effect and ±100 for the full control effect; potency is read from the fitted curve at half-maximal effect; tags tell the direction and shape of the fitted curve.

Compound | activation | Potency
COc1ccc(N(CC(=O)Nc2ccccc2C)S(=O)(=O)c2c(C)[nH]c(=O)[nH]c2=O)cc1 | inactive: -1.31% | 
CC1=NN(c2ccccc2)C(=O)/C1=C/c1cccs1 |  | inconclusive [rising, single point]
COc1cccc(CNC(=O)N2CCN(S(=O)(=O)c3ccc(C)cc3)CC2)c1 |  | active: 11.2 µM
COc1cccc(/C=N/NC(=O)CCc2ccccc2)c1 | inactive: -3.56% | 
Cc1ccc(S(=O)(=O)c2cc3cc(Br)ccc3oc2=O)cc1 |  | inconclusive [rising, partial curve]
Fc1cc(F)c2nc(Nc3nc4cc5c(cc4s3)OCO5)sc2c1 |  | inconclusive [rising, full curve, poor fit]
CCCCOc1ccc(CN(C)c2ncnc(N)n2)cc1 |  | inconclusive [rising, single point]
Cc1cc(C)c(NC(=O)NC(=O)c2cccc(F)c2)c(C)n1 |  | inconclusive [rising, single point]
Cc1sc(-n2c(C)cc(/C=N/n3cnnc3)c2C)c(C#N)c1C | inactive: 6.07% | 
CN1CCN(C(=O)N2CCNC2=O)CC1 | inactive: -9.27% | 
CNC(=O)C1CCN(S(=O)(=O)c2c(C)noc2/C=C/c2cccc(OC)c2)CC1 |  | inconclusive [rising, single point]
CCSc1ccccc1C(=O)N1CCN(c2ccc([N+](=O)[O-])cc2)CC1 |  | inconclusive [rising, single point]
COc1ccccc1NS(=O)(=O)c1cccc(N2CC(O)=C(c3ccccc3)C2=N)c1 |  | inconclusive [rising, partial curve]
C=CCc1ccc(OCC(O)CN2CCCCC2C)c(OC)c1 (stereo not drawn) |  | inconclusive [rising, single point]
O=[N+]([O-])c1ccc(Nc2nc(N/N=C/c3cccc(F)c3)nc(N3CCCC3)n2)cc1 | inactive: -0.135% | 
CN(Cc1ccccc1)C(=O)COC(=O)/C=C/c1ccco1 | inactive: 23.5% | 
Cc1ccc2nc(SC(C)C(=O)NCc3ccc4c(c3)OCO4)[nH]c2c1 (stereo not drawn) |  | inconclusive [rising, single point]
Cc1cccc2sc(NNC(=O)C3COc4ccccc4O3)nc12 (stereo not drawn) | inactive: -3.87% | 
COc1cccc(CNC(=O)C2CCN(S(=O)(=O)c3ccccc3)CC2)c1 |  | active: 25.1 µM
O=c1c(Cl)c(NCCO)cnn1-c1cccc(Cl)c1 | inactive: -10.2% | 
Cc1cc(C(=O)N/N=C/c2cc(Br)ccc2OC(=O)c2ccc(Br)cc2)n[nH]1 |  | inconclusive [rising, partial curve]
Cc1cc(C(=O)CCC(=O)N2CCN(S(=O)(=O)c3cccs3)CC2)c(C)s1 |  | inconclusive [rising, partial curve]
N#CCc1c(C#N)c(N)nc(N2CCN(S(=O)(=O)c3ccccc3F)CC2)c1C#N |  | inconclusive [rising, partial curve]
COC(=O)c1ccc(-c2cc(CC3(C(=O)OC)CCN(C(=O)OC(C)(C)C)CC3)on2)cc1 |  | inconclusive [rising, single point]
Cc1cc(C)n(Cc2ccc(C(=O)NCc3ccco3)o2)n1 | inactive: -3.97% | 
Cn1c(SCC(=O)N/N=C/c2ccco2)nc2ccccc21 | inactive: 8.22% | 

Compound | activation | Potency
c1ccc(OCc2nnnn2-c2ccccc2)cc1 |  | inconclusive [rising, single point]
O=C(CN1CCCC1)N1CCCc2ccccc21 |  | inconclusive [rising, single point]
Oc1ccc2ccccc2c1CNc1cnc2ccccc2c1 | inactive: 0.823% | 
CCC(=O)c1ccc(N2CCN(S(=O)(=O)c3ccccc3)CC2)c(F)c1 |  | inconclusive [rising, partial curve]
O=C(CCN1CCOCC1)N/N=C/c1cc([N+](=O)[O-])ccc1OC(F)F | inactive: -1.07% | 
COc1cccc(NC(=O)CSc2nnc(-c3ccc(C)cc3)o2)c1 |  | active: 1.26 µM
Cc1ccc(-n2nnnc2SCn2nnc3ccccc3c2=O)c(C)c1 |  | active: 15.8 µM
Cn1c(=O)c2cc(S(=O)(=O)Nc3cccc(F)c3)ccc2n(C)c1=O |  | active: 5.01 µM
CC(C)(C)Cc1nc2ccccc2n1CCc1ccccc1 | inactive: 11.1% | 
O=S(=O)(Nc1ccc2c(c1)OCO2)c1cccs1 |  | inconclusive [rising, partial curve]
Cc1cc(C)n(-c2nc(NC(C)C)nc(NC(C)C)n2)n1 | inactive: 0.239% | 
COc1ccc(N2C(S)=C(C#N)C(=O)NC2c2ccc(OC)c(OC)c2)cc1 (stereo not drawn) |  | inconclusive [rising, single point]
Cc1cccc(CN2CCN(Cc3ccco3)CC2)c1 | inactive: 1.13% | 
Fc1ccccc1OCCSc1ncnc2nc[nH]c12 |  | inconclusive [rising, single point]
COc1ccc(-n2ncc3c(N4CCC(C)CC4)ncnc32)cc1 | inactive: -2.66% | 
CCC/C(O)=C1\C(=O)CC(c2ccccc2)CC1=NC (stereo not drawn) |  | inconclusive [rising, single point]
CCOC(=O)C1CCN(C(=O)CNC(=O)Cn2c(C)cc3ccccc3c2=O)CC1 | inactive: 2.04% | 
COC(=O)Cc1sc(-c2ccccn2)nc1-c1ccccc1 | inactive: -9.91% | 
CC(C)(C)OC(=O)N[C@@H](Cc1ccccc1)c1nnc(S(=O)(=O)Cc2ccccc2)o1 |  | inconclusive [rising, partial curve]
COCCn1c(SCC(=O)Nc2cccc(OC)c2)nc2c(oc3ccccc32)c1=O |  | inconclusive [rising, full curve, poor fit]
CC1(C)Cc2ccccc2C(/C(=N\Nc2cccc(Cl)c2)C(N)=O)=N1 |  | inconclusive [rising, single point]
O=C1ON=C(c2ccccc2)/C1=C/c1ccc(OS(=O)(=O)c2ccccc2)cc1 |  | inconclusive [rising, single point]
COc1ccccc1Cn1c(=O)c2ccccc2n2c(SCc3csc(C)n3)nnc12 |  | inconclusive [rising, single point]
COc1ccccc1C1(CC(=O)O)CCOC(C(C)C)C1 (stereo not drawn) | inactive: 2.19% | 
Cc1ccc(OCCCOc2cccc3cccnc23)cc1C | inactive: 1.53% | 
O=C(NNc1ccc(F)cc1F)c1c(F)cccc1Cl |  | inconclusive [rising, single point]

Compound | activation | Potency
Cc1ccc(NS(=O)(=O)c2ccc(NC(=O)[C@@H]3CCCC[C@@H]3C(=O)O)cc2)c(C)c1 |  | inconclusive [rising, partial curve]
CCc1nc(OCc2ccco2)c2sc3nc4c(cc3c2n1)COC(C)(C)C4 |  | inconclusive [rising, partial curve]
NNC(=O)c1cccc(S(=O)(=O)Nc2cc(Cl)ccc2Cl)c1 |  | inconclusive [rising, single point]
S=c1[nH]nc(-c2ccc3ccccc3n2)n1Cc1ccccc1 | inactive: -8.66% | 
Cc1ccc(OCC(=O)N2CCN(C(=O)c3ccc([N+](=O)[O-])cc3)CC2)cc1 |  | inconclusive [rising, partial curve, poor fit]
CCOc1ccc(C(=O)CN2CCN(S(=O)(=O)c3ccc(OC)cc3)CC2)cc1 |  | inconclusive [rising, partial curve]
O=C(Oc1ccc(OC(=O)c2ccco2)c(S(=O)(=O)c2ccc(Br)cc2)c1)c1ccco1 |  | active: 4.47 µM
CCOC(=O)c1c(-c2ccc(C)o2)csc1NC(=O)COC(=O)c1cccs1 |  | active: 3.16 µM
N#CCC(=O)N/N=C/c1cn(Cc2ccc3ccccc3c2)c2ccccc12 |  | inconclusive [rising, partial curve]
COc1ccc(S(=O)(=O)N2CCC(n3cnc4ccccc43)CC2)cc1 |  | active: 15.8 µM
Cc1ccc(S(=O)(=O)Nc2nc(C)cc(NN)n2)cc1 |  | inconclusive [rising, single point]
CNC(=O)COc1ccc(Cl)c2cccnc12 |  | inconclusive [rising, partial curve, poor fit]
O=C(N/N=C/C(Cl)=C/c1ccc([N+](=O)[O-])cc1)C(=O)Nc1ccc(C(=O)O)cc1 |  | inconclusive [rising, single point]
Cc1cc(SCC(=O)c2ccc(O)c(O)c2)nc2ccccc12 | inactive: -0.227% | 
Cn1c(CCNC(=O)c2ccco2)nc2cc(NS(=O)(=O)c3ccc(Cl)cc3)ccc21 |  | active: 15.8 µM
COCCn1c(N)c(C(=O)OCc2ccccc2)c2nc3ccccc3nc21 |  | inconclusive [rising, full curve, poor fit]
O=C(NCCc1cccs1)c1ccc(Cl)cc1 | inactive: -1.83% | 
Nc1ncnc2oc(-c3ccco3)c(-c3ccco3)c12 |  | inconclusive [rising, full curve]
Cc1ccc(S(=O)(=O)N2CCN(C(=O)CSc3ccc(Cl)cc3)CC2)cc1 |  | active: 14.1 µM
CC(/C=N/n1c(-c2ccncc2)n[nH]c1=S)=C\c1ccco1 | inactive: -1.22% | 
Cc1ccc(Oc2ccc(S(=O)(=O)NCC(C)(C)N3CCOCC3)cc2)cc1 | inactive: 0.376% | 
COCCNc1nc(C)nc2c1nc(-c1ccccc1)n2CCCN1CCCCC1C (stereo not drawn) | inactive: -7.3% | 
C=CCc1cccc(CNc2nc3ccccc3n2CCC)c1O |  | active: 28.2 µM
O=C(NCc1ccco1)c1ccc(=O)[nH]n1 |  | inconclusive [rising, single point]
CC(C)n1c(-c2ccc(N(C)C)cc2)nc2ccccc21 | inactive: -1.17% | 
COc1ccc(C(=O)NC(=S)N2CCOCC2)cc1[N+](=O)[O-] | inactive: -7.91% | 
